Reference: PubChem BioAssay AID1468 (National Center for Advancing Translational Sciences (NCATS), 2008)
Among all 280,000 compounds or so, about 1,100 (0.39%) were called active. The inconclusive results got no clear call from the source; some entries with a clear call stand among them for comparison. Calls follow the shape of the dose curve; as a rule, active = well fitted inhibition curve with a large enough effect; inconclusive = small, poorly fitted or top-dose-only effect, or effect the other way; inactive = flat fitted curve, though single readings scatter. No potency is given beside an inconclusive call; the fits are too rough.

Target: Microtubule-associated protein tau (Homo sapiens) (UniProt P10636)
UniProt P10636, sequence (P10636 whole entry, looked up): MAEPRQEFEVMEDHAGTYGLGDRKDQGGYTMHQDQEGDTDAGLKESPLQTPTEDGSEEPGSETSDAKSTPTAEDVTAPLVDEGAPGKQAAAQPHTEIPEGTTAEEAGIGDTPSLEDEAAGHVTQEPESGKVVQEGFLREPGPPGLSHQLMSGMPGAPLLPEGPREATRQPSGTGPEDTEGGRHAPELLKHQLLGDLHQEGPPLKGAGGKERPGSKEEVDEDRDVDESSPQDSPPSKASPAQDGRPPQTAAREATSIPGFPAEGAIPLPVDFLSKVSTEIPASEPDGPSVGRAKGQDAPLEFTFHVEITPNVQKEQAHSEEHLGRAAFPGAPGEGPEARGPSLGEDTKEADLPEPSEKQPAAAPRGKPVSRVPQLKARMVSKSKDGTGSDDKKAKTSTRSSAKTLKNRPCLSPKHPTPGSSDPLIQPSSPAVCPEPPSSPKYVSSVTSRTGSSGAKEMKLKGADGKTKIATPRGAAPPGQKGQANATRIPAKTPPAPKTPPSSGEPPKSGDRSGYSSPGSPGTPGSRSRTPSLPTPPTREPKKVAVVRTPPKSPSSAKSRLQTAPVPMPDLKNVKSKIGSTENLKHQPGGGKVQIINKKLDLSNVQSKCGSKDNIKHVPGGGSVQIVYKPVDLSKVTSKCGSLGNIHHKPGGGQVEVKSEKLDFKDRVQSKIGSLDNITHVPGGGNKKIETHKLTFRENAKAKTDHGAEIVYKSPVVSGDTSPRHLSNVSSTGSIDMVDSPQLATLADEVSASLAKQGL
Assay: qHTS for Inhibitors of Tau Fibril Formation, Fluorescence Polarization; also: nearly all actives have a fitted effect of over 55% in size
Details: K18 P301L tau heparin fibrillization, Alexa594 FP, 6 h; series mostly up to 57.7 µM
Summary of the method: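 FP of Alexa 594-tau after heparin (20 uM) induction. Substrate: human K18 P301L, 15 uM unlabeled, 0.24 uM labeled. Buffer 100 mM sodium acetate pH 7. 6 hr, 37 C.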
Potency is read from the fitted curve at half-maximal effect; tags tell the direction and shape of the fitted curve.

With `CCc1cccc(OCC(=O)Nc2ccc(S(=O)(=O)Nc3ncccn3)cc2)c1` as the molecule, how does the Potency read?
Its Potency is “inactive”.

`Cc1cccc(Nc2nc(N)nc(N)c2S(=O)(=O)c2ccccc2)c1` was tested. Which Potency did it give?
The Potency was inconclusive [inhibitor, partial curve].

Which Potency does the source give for `Cc1ccc(C(=O)NCCSc2ccc(Cl)cc2)cc1[N+](=O)[O-]` here?
Its Potency is inconclusive [inhibitor, partial curve].

With `COc1cccc(-c2ccc(=O)n(CC(=O)Nc3ccc(S(=O)(=O)NCC(C)C)cc3)n2)c1` as the molecule, how does the Potency read?
The Potency was inconclusive [inhibitor, single point].

Which Potency does the source give for `O=C(CSc1nc2ncc(Cl)cc2[nH]1)c1ccc2c(c1)OCO2` here?
Its Potency is inconclusive [inhibitor, single point].

How did the Potency turn out when `O=C1C=C(Nc2ccccc2)c2ccccc2C1=O` was run?
The Potency was “inactive”.

How did the Potency turn out when `COCCn1nnnc1C(c1cc2cc(C)cc(C)c2[nH]c1=O)N1CCN(c2ccccc2F)CC1` (centres undefined) was run?
The Potency was “inactive”.

Which Potency does the source give for `Cc1onc(-c2c(Cl)cccc2Cl)c1C(=O)NNc1ccccc1` here?
The Potency was inconclusive [inhibitor, single point].

For `CN1CCc2c(sc(N)c2C(=O)O)C1`, which Potency is on record?
The Potency was inconclusive [inhibitor, single point].

With `COCCn1c(-c2ccc(OC)cc2)cnc1SCC(=O)Nc1ccc(OC)cc1OC` as the molecule, how does the Potency read?
Its Potency is “inactive”.

Which Potency does the source give for `CN(C1CCCCC1)S(=O)(=O)c1ccc(NC(=O)Cn2nc(-c3ccc(F)cc3)ccc2=O)cc1` here?
The Potency was inconclusive [inhibitor, partial curve].

For `COCCSc1ccccc1C(=O)Nc1ccc([N+](=O)[O-])cc1OC`, which Potency is on record?
Its Potency is “inactive”.

With `Fc1cccc(Nc2ncnc3c2cnn3-c2ccccc2)c1` as the molecule, how does the Potency read?
The Potency was active: 25.1 µM.

With `COc1cc(/C=N/NC(=O)c2cccs2)ccc1OCc1ccccc1` as the molecule, how does the Potency read?
The Potency was inconclusive [inhibitor, partial curve].

Which Potency does the source give for `Cc1ccc(N2CCN(C(=O)CN3C(=O)c4ccccc4C3=O)CC2)cc1` here?
Its Potency is “inactive”.

`CC1=C(C(=O)Nc2ccc(Cl)cc2)C(c2ccccc2F)n2nc(SCc3cccc(Cl)c3)nc2N1` (centres undefined) was tested. Which Potency did it give?
The Potency was inconclusive [inhibitor, partial curve].

With `COc1ccc(N2CCN(c3ccc(C(N)=O)cc3[N+](=O)[O-])CC2)cc1` as the molecule, how does the Potency read?
Its Potency is “inactive”.

`O=C(NC(=S)Nc1ccc(F)cc1)c1ccc2c(c1)OCCO2` was tested. Which Potency did it give?
Its Potency is inconclusive [inhibitor, single point].

With `COc1ccc(O[C@H]2C=C[C@@H](c3ccccc3)O[C@@H]2CO/N=C\[C@@H](C)[C@H](OCc2ccccc2)C(C)C)cc1` as the molecule, how does the Potency read?
The Potency was inconclusive [inhibitor, single point].
